In a collection of fitness landscapes (doi:10.1126/science.1257360) one finds enrichment ratio data, which are given here for 153 variants.

Sequences and labels used below:
B1: PhoQ; a variant is named by its letters at X, in order, P23837 (parent)
chain: MKKLLRLFFPLSLRVRFLLATAAVVLVLSLAYGMVALIGYSVSFDKTTFRLLRGESNLFYTLAKWENNKLHVELPENIDKQSPTMTLIYDENGQLLWAQRDVPWLMKMIQPDWLKSNGFHEIEADVNDTSLLLSGDHSIQQQLQEVREDDDDAEMTHSVAVNVYPATSRMPKLTIVVVDTIPVELKSSYMVWSWFIYVLSANLLLVIPLLWVAAWWSLRPIEALAKEVRELEEHNRELLNPATTRELTSLVRNLNRLLKSERERYDKYRTTLTDLTHSLKTPLXXLQXXLRSLRSEKMSVSDAEPVMLEQISRISQQIGYYLHRASMRGGTLLSRELHPVAPLLDNLTSALNKVYQRKGVNISLDISPEISFVGEQNDFVEVMGNVLDNACKYCLEFVEISARQTDEHLYIVVEDDGPGIPLSKREVIFDRGQRVDTLRPGQGVGLAVAREITEQYEGKIVAGESMLGGARMEVIFGRQHSAPKDE

Some of the results follow.

Variants of B1 are the subject of the experiment. Nature of the experiment: enrichment ratio after two sorts for PhoP signalling (ratio (wild type AVST 3.29)); higher = more functional. Conditions: with PhoP (E. coli).
Regarding HCPN, the enrichment ratio was at most 0.25.

On to QTFF, for which the enrichment ratio amounted to 2.95.

For ALVL, the enrichment ratio came to 4.98.

As to NSQD, the enrichment ratio was at most 0.25.

With TIHH, the enrichment ratio worked out at 3.22.

As to LTEK, the enrichment ratio is at most 0.25.

For the variant PMRC, the enrichment ratio was at most 0.25.

Consider ECMW, for which the enrichment ratio was at most 0.25.

For the variant IWHP, the enrichment ratio was at most 0.25.

Consider STDQ, for which the enrichment ratio was at most 0.25.

On to FGSI, for which the enrichment ratio was at most 0.25.

Turning to ESIG, the enrichment ratio is at most 0.25.

With ATWL, the enrichment ratio is at most 0.25.

RDGN: the enrichment ratio was at most 0.25.

As to NDFC, the enrichment ratio was at most 0.25.

In the case of FELP, the enrichment ratio is at most 0.25.

With YTPI, the enrichment ratio is at most 0.25.

LYRC: the enrichment ratio is at most 0.25.

Regarding SVDH, the enrichment ratio is at most 0.25.

For KFFV, the enrichment ratio was at most 0.25.

With TSDK, the enrichment ratio was at most 0.25.

On to RMTR, for which the enrichment ratio is at most 0.25.

Consider EMLF, for which the enrichment ratio is at most 0.25.

As to RSRN, the enrichment ratio was at most 0.25.

With NHKV, the enrichment ratio was at most 0.25.

Turning to WLPA, the enrichment ratio is at most 0.25.

For LNEF, the enrichment ratio is at most 0.25.

Turning to KVSW, the enrichment ratio was at most 0.25.

As for DQDY, the enrichment ratio is at most 0.25.

For LINK, the enrichment ratio was at most 0.25.

PECA: the enrichment ratio is at most 0.25.

Turning to ADQG, the enrichment ratio is at most 0.25.

LNAE: the enrichment ratio was at most 0.25.

Turning to QPPT, the enrichment ratio was at most 0.25.

Regarding PSVD, the enrichment ratio was 0.409.

Regarding WSPE, the enrichment ratio is at most 0.25.

Take NVFV: the enrichment ratio is at most 0.25.

Regarding FEKE, the enrichment ratio is at most 0.25.

With NAFV, the enrichment ratio is at most 0.25.

Take VGMQ: the enrichment ratio was 2.81.

DNGQ: the enrichment ratio is at most 0.25.

Regarding QRMD, the enrichment ratio is at most 0.25.

Consider YCWM, for which the enrichment ratio is at most 0.25.

In the case of IEMT, the enrichment ratio was at most 0.25.

In the case of NSVL, the enrichment ratio was at most 0.25.

As for QGNM, the enrichment ratio came out at 6.96.

With PKCN, the enrichment ratio was at most 0.25.

Take PFPA: the enrichment ratio is at most 0.25.

With PWMT, the enrichment ratio is at most 0.25.

On to WLDP, for which the enrichment ratio was at most 0.25.

Consider LSKM, for which the enrichment ratio worked out at 3.36.

For the variant DPYT, the enrichment ratio was at most 0.25.

On to FWWV, for which the enrichment ratio was at most 0.25.

Regarding TCGT, the enrichment ratio stood at 11.

With ENAE, the enrichment ratio is at most 0.25.

Consider YGCM, for which the enrichment ratio was 4.55.

Turning to TPIM, the enrichment ratio is at most 0.25.

For the variant FRMD, the enrichment ratio is at most 0.25.

On to AEQV, for which the enrichment ratio was found to be 12.7.

Consider GAAM, for which the enrichment ratio was at most 0.25.

For MPLA, the enrichment ratio is at most 0.25.

Turning to PVSH, the enrichment ratio is at most 0.25.

Take HDCT: the enrichment ratio is at most 0.25.

As to SKHQ, the enrichment ratio was at most 0.25.

Regarding DGIW, the enrichment ratio is at most 0.25.

Take VTNA: the enrichment ratio was at most 0.25.

For HPMV, the enrichment ratio is at most 0.25.

As for HWTM, the enrichment ratio is at most 0.25.

For the variant FNYK, the enrichment ratio stood at 0.488.

With QDRQ, the enrichment ratio was at most 0.25.

Consider EDMS, for which the enrichment ratio is at most 0.25.

Regarding LCWC, the enrichment ratio is at most 0.25.

Regarding ETKM, the enrichment ratio is at most 0.25.

On to ALVY, for which the enrichment ratio is at most 0.25.

For NMYI, the enrichment ratio is at most 0.25.

On to IVMK, for which the enrichment ratio was at most 0.25.

With FIKT, the enrichment ratio was at most 0.25.

For the variant ESAM, the enrichment ratio is at most 0.25.

PCVV: the enrichment ratio was at most 0.25.

Consider IDIF, for which the enrichment ratio was at most 0.25.

As for GKPR, the enrichment ratio was at most 0.25.

As to LCQI, the enrichment ratio was at most 0.25.

In the case of SPEV, the enrichment ratio is at most 0.25.

As to PLYS, the enrichment ratio is at most 0.25.

Consider KVSD, for which the enrichment ratio is at most 0.25.

Consider PAMT, for which the enrichment ratio was at most 0.25.

As for SIEC, the enrichment ratio is at most 0.25.

Consider PWQG, for which the enrichment ratio was at most 0.25.

With QCDA, the enrichment ratio is at most 0.25.

As to SCHI, the enrichment ratio was at most 0.25.

For the variant MVWM, the enrichment ratio turned out to be 0.553.

For the variant QLMY, the enrichment ratio was at most 0.25.

For IPMF, the enrichment ratio is at most 0.25.

As to RSIL, the enrichment ratio is at most 0.25.

Regarding RQKC, the enrichment ratio is at most 0.25.

For LHCD, the enrichment ratio was at most 0.25.

For ATLP, the enrichment ratio is at most 0.25.

Turning to KFEC, the enrichment ratio is at most 0.25.

Consider YWEG, for which the enrichment ratio was at most 0.25.

For the variant PTSC, the enrichment ratio was at most 0.25.

Take LRDH: the enrichment ratio was at most 0.25.

Turning to LNER, the enrichment ratio was at most 0.25.

Regarding RYTQ, the enrichment ratio is at most 0.25.

For the variant FQAI, the enrichment ratio is at most 0.25.

Turning to TLYE, the enrichment ratio is at most 0.25.

Take RAST: the enrichment ratio was determined as 0.266.

For the variant DLRW, the enrichment ratio was at most 0.25.

Consider FFEF, for which the enrichment ratio is at most 0.25.

WHRQ: the enrichment ratio was at most 0.25.

Regarding YMSW, the enrichment ratio was at most 0.25.

Regarding MAFP, the enrichment ratio is at most 0.25.

Consider SCNT, for which the enrichment ratio was at most 0.25.

As to QAST, the enrichment ratio is 0.86.

FICW: the enrichment ratio is at most 0.25.

As to HLRV, the enrichment ratio is at most 0.25.

As for LNLA, the enrichment ratio was at most 0.25.

MYEM: the enrichment ratio was at most 0.25.

PCKH: the enrichment ratio is at most 0.25.

Turning to MMRP, the enrichment ratio is at most 0.25.

LIRY: the enrichment ratio is at most 0.25.

For MVCN, the enrichment ratio was at most 0.25.

As for TKTS, the enrichment ratio is 11.9.

For the variant GSHK, the enrichment ratio was at most 0.25.

For the variant VYSI, the enrichment ratio was at most 0.25.

As for ELYN, the enrichment ratio is at most 0.25.

Consider GGHK, for which the enrichment ratio was at most 0.25.

For the variant NPFH, the enrichment ratio is at most 0.25.

On to DWAF, for which the enrichment ratio was at most 0.25.

As for WEIY, the enrichment ratio was at most 0.25.

On to RWGA, for which the enrichment ratio is at most 0.25.

Consider TQVT, for which the enrichment ratio came to 9.49.

In the case of PDTR, the enrichment ratio is at most 0.25.

Take GKIT: the enrichment ratio was at most 0.25.

With NQAD, the enrichment ratio was at most 0.25.

Take KEST: the enrichment ratio is at most 0.25.

Consider HTSQ, for which the enrichment ratio is at most 0.25.

Take TQAE: the enrichment ratio was found to be 8.04.

Turning to VREH, the enrichment ratio was at most 0.25.

In the case of QFAY, the enrichment ratio is at most 0.25.

Consider QCYE, for which the enrichment ratio worked out at 0.304.

Turning to MWFR, the enrichment ratio is at most 0.25.

For KIEC, the enrichment ratio is at most 0.25.

Take YNSV: the enrichment ratio is at most 0.25.

PEMG: the enrichment ratio was at most 0.25.

Consider DYLP, for which the enrichment ratio was at most 0.25.

VHFV: the enrichment ratio is at most 0.25.

Turning to FGAP, the enrichment ratio is at most 0.25.

Turning to STQI, the enrichment ratio was determined as 3.79.

In the case of MFDS, the enrichment ratio is at most 0.25.

MNFW: the enrichment ratio is at most 0.25.

For RLVT, the enrichment ratio is at most 0.25.

As to LWGP, the enrichment ratio was at most 0.25.

Consider RASQ, for which the enrichment ratio was at most 0.25.
